These results are taken from the supplement of paper PMC4967469.

Common to all, as to test: Viability of human cancer cell lines after 72 h of drug (GDSC screen)
Compound in one experiment: S=C(NCc1ccc2c(c1)OCO2)N1CCN(c2ncnc3c2oc2ccccc23)CC1 [MP470]
As to conditions: top dose 20 µM; top dose inferred. Here is the method: (§1)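 Human cancer cell lines in 384-well plates, medium with 10% serum, drug for 72 h over a 256-fold dose range (nine 2-fold or five 4-fold steps up to the top dose). Adherent lines were fixed and stained with the nucleic acid dye Syto60, suspension lines read with resazurin; signal relative to control wells, capped at 0 and 100%. One two-parameter sigmoid per drug and line, fitted in a mixed model over all curves with the slope shared within a line.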

Compound in a further experiment: CC(C)c1ccccc1Cc1cc(C(=O)Nc2ccc(S(=O)(=O)c3ccccc3C(C)(C)C)cc2)c(O)c(O)c1O [TW-37]
As to conditions: top dose 5 µM. Here is the method:
as §1

Compound in the next experiment: CCNC(=O)c1noc(-c2cc(C(C)C)c(O)cc2O)c1-c1ccc(CN2CCOCC2)cc1 [AUY922]
The settings on record: top dose 0.256 µM; top dose inferred. Here is the method: as §1

Compound in a further experiment: Nc1ccn([C@@H]2O[C@H](CO)[C@@H](O)C2(F)F)c(=O)n1 [Gemcitabine]
The settings on record: top dose 1.024 µM. Here is the method:
as §1

Compound in the next experiment: CC(O)(CS(=O)(=O)c1ccc(F)cc1)C(=O)Nc1ccc(C#N)c(C(F)(F)F)c1 [Bicalutamide]
The settings on record: top dose inferred. Here is the method:
as §1

Compound in another experiment: Cc1ccc(Nc2cc(-c3cccc(N4C(=O)c5ccccc5C4=O)c3)ncn2)cc1NS(C)(=O)=O [KIN001-270]
The settings on record: top dose 20 µM; top dose inferred. Here is the method: as §1

Compound in a further experiment: O=S(=O)(c1ccccc1)N(CC(F)(F)F)c1ccc(C(O)(C(F)(F)F)C(F)(F)F)cc1 [T0901317]
As to conditions: top dose 10.24 µM; top dose inferred. Here is the method:
as §1

Compound in a further experiment: Cc1cn(-c2cc(NC(=O)c3ccc(C)c(Nc4nccc(-c5cccnc5)n4)c3)cc(C(F)(F)F)c2)cn1 [Nilotinib]
As to conditions: top dose 2 µM. Here is the method: as §1

Compound in the next experiment: C/C(O)=C(\C#N)C(=O)Nc1cc(Br)ccc1Br [LFM-A13]
As to conditions: top dose 16 µM; top dose inferred. Here is the method:
as §1

Compound in a further experiment: NC(=O)c1cccc(-c2cc(Nc3ccc(OC(F)(F)F)cc3)ncn2)c1 [GNF-2]
The settings on record: top dose 1.28 µM; top dose inferred. Here is the method: as §1

Where [1] appears, read: top dose 1.024 µM, screen: GDSC drug entry 150.
Where [2] appears, read: top dose 10 µM, screen: GDSC drug entry 1502.

The IC50 comes from the fitted curve, where viability falls to half of the control; fits outside the tested doses are given as limits. The AUC spans the tested range (256-fold, ending at the top dose) of the same fit: 1 means no effect, lower means more sensitive. For some assays here: A top dose marked as inferred was calculated from the reported fits. For some assays here: Drugs with an entry number were screened twice under separate entries, and the two screens often disagree.

In the case of L-428 (Hodgkin lymphoma, suspension), the AUC in the experiment with MP470 was determined as 0.948; with TW-37 it was 0.747; in the experiment with AUY922 it was 0.665; in the experiment with Gemcitabine, 0.437; with Bicalutamide (setting [1]) it was 0.993; with Bicalutamide (setting [2]), 0.992. The AUC with KIN001-270 was 0.992; with T0901317, 0.968; in the experiment with Nilotinib it was 0.993; with LFM-A13, 0.981; with GNF-2, 0.99. The IC50 is over 20 µM in the experiment with MP470; 1.44 µM with TW-37; 0.0433 µM with AUY922; 0.044 µM with Gemcitabine; over 1.02 µM with Bicalutamide (setting [1]); over 10 µM in the experiment with Bicalutamide (setting [2]). Moreover, the IC50 with KIN001-270 was over 20 µM; with T0901317, over 10.2 µM; in the experiment with Nilotinib it was over 2 µM; in the experiment with LFM-A13 it was over 16 µM; with GNF-2, over 1.28 µM.
For the cell line IMR-5 (neuroblastoma, adherent), the AUC is 0.963 in the experiment with MP470; 0.61 with TW-37; 0.706 with AUY922; 0.357 with Gemcitabine; 0.988 in the experiment with Bicalutamide (setting [1]); 0.971 in the experiment with Bicalutamide (setting [2]). Also, the AUC amounted to 0.974 with KIN001-270; 0.989 in the experiment with T0901317; 0.991 with Nilotinib; 0.98 in the experiment with LFM-A13; 0.988 in the experiment with GNF-2. The IC50 in the experiment with MP470 is over 20 µM; in the experiment with TW-37, 0.596 µM; with AUY922 it was 0.0546 µM; with Gemcitabine, 0.0277 µM; in the experiment with Bicalutamide (setting [1]), over 1.02 µM; in the experiment with Bicalutamide (setting [2]), over 10 µM. The IC50 was over 20 µM with KIN001-270; over 10.2 µM with T0901317; over 2 µM with Nilotinib; over 16 µM in the experiment with LFM-A13; over 1.28 µM with GNF-2.
Regarding “MONO-MAC-6 (acute myeloid leukaemia, suspension)”, the AUC with MP470 was 0.878; in the experiment with TW-37, 0.55; with AUY922, 0.594; in the experiment with Gemcitabine, 0.272; in the experiment with Bicalutamide (setting [1]), 0.978; with Bicalutamide (setting [2]), 0.95. The AUC came out at 0.887 with KIN001-270; 0.905 with T0901317; 0.943 with Nilotinib; 0.926 in the experiment with LFM-A13; 0.983 in the experiment with GNF-2. The IC50 in the experiment with MP470 is over 20 µM; with TW-37 it was 0.43 µM; with AUY922, 0.0294 µM; with Gemcitabine, 0.0138 µM; with Bicalutamide (setting [1]), over 1.02 µM; with Bicalutamide (setting [2]), over 10 µM. Besides, the IC50 is over 20 µM in the experiment with KIN001-270; over 10.2 µM in the experiment with T0901317; over 2 µM with Nilotinib; over 16 µM with LFM-A13; over 1.28 µM with GNF-2.
On to KM12 (large intestine, adherent), for which the AUC was 0.931 with MP470; 0.731 with TW-37; 0.562 with AUY922; 0.551 with Gemcitabine; 0.978 with Bicalutamide (setting [1]); 0.984 with Bicalutamide (setting [2]). The AUC with KIN001-270 stood at 0.971; in the experiment with T0901317, 0.974; in the experiment with Nilotinib, 0.985; in the experiment with LFM-A13, 0.972; with GNF-2, 0.985. Further, the IC50 with MP470 was over 20 µM; in the experiment with TW-37, 1.51 µM; with AUY922, 0.024 µM; in the experiment with Gemcitabine it was 0.0893 µM; with Bicalutamide (setting [1]), over 1.02 µM; with Bicalutamide (setting [2]), over 10 µM. For the same cell line, the IC50 in the experiment with KIN001-270 was over 20 µM; in the experiment with T0901317 it was over 10.2 µM; with Nilotinib, over 2 µM; with LFM-A13, over 16 µM; with GNF-2, over 1.28 µM.
In the case of SLVL (B-cell lymphoma, suspension), the AUC was determined as 0.91 in the experiment with MP470; 0.761 with TW-37; 0.497 with AUY922; 0.19 with Gemcitabine; 0.98 in the experiment with Bicalutamide (setting [1]); 0.973 with Bicalutamide (setting [2]). For the same cell line, the AUC with KIN001-270 was found to be 0.945; with T0901317, 0.962; with Nilotinib, 0.976; in the experiment with LFM-A13 it was 0.96; with GNF-2 it was 0.986. Moreover, the IC50 with MP470 was over 20 µM; in the experiment with TW-37, 1.87 µM; with AUY922, 0.0157 µM; with Gemcitabine it was 0.00708 µM; with Bicalutamide (setting [1]), over 1.02 µM; in the experiment with Bicalutamide (setting [2]) it was over 10 µM. Moreover, the IC50 with KIN001-270 is over 20 µM; with T0901317, over 10.2 µM; with Nilotinib, over 2 µM; with LFM-A13 it was over 16 µM; in the experiment with GNF-2, over 1.28 µM.
For KINGS-1 (glioma, adherent), the AUC stood at 0.965 with MP470; 0.774 with TW-37; 0.59 with AUY922; 0.965 with Gemcitabine; 0.976 with Bicalutamide (setting [1]); 0.966 in the experiment with Bicalutamide (setting [2]). The AUC with KIN001-270 is 0.956; with T0901317, 0.962; with Nilotinib it was 0.976; with LFM-A13, 0.954; in the experiment with GNF-2, 0.96. The half-inhibitory concentration (IC50) with MP470 was over 20 µM; in the experiment with AUY922, 0.0309 µM; with Gemcitabine, over 1.02 µM; with Bicalutamide (setting [1]), over 1.02 µM; with Bicalutamide (setting [2]) it was over 10 µM; in the experiment with KIN001-270, over 20 µM. In addition, the IC50 in the experiment with T0901317 is over 10.2 µM; with Nilotinib, over 2 µM; with LFM-A13, over 16 µM; with GNF-2, over 1.28 µM.

In general, IC50 refers to the concentration at which inhibition is half-maximal.
